The other results are listed elsewhere or left out. The list includes weakly bound sequences.
The sequences below were run against T1, MBP-FoxP3dN (UniProt Q99JB6) (assay: PD-seq (MBP pull-down with sequencing)). Conditions: 20 mM Tris-HCl pH 7.5, 100 mM NaCl, 1.5 mM MgCl2, 0.4 uM protein, 0.1 uM dsDNA library, 30 min, room temperature, amylose pull-down; high values mean tight binding; double strand, one strand shown.
T1 sequence: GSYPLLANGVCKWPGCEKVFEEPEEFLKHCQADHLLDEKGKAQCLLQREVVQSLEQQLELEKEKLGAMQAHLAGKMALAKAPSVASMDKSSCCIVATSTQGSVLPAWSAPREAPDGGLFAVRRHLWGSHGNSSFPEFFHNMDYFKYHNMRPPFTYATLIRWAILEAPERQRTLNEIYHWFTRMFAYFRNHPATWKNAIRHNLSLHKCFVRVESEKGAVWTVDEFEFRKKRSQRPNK

Row | Sequence | binding signal (RPM ratio (pull-down/input))
1 | GATGATTGTTCTCCCAGCTGATGAATTTATAGGGTCGAGTAAACAAATTTTCCTAATCTTTCTGTTCAAGCGCCATCTAC | 0.952
2 | GATGATTGTTCTCCCAGCTGATGAATTTGAAAAATCGAGTAAACAAATTTTCCTAATCTTTCTGTTCAAGCGCCATCTAC | 0.178
3 | GATGATTGTTCTCCCAGCTGATGAATTTACGTAGTCGAGTAAACAAATTTTCCTAATCTTTCTGTTCAAGCGCCATCTAC | 0.51
4 | GATGATTGTTCTCCCAGCTGATGAATTGTTCGTATCGAGTAAACAAATTTTCCTAATCTTTCTGTTCAAGCGCCATCTAC | 0.679
5 | GATGATTGTTCTCCCAGCTGATGAATTCTATCGTTCGAGTAAACAAATTTTCCTAATCTTTCTGTTCAAGCGCCATCTAC | 1.07
6 | GATGATTGTTCTCCCAGCTGATGAATTAACAGGCTCGAGTAAACAAATTTTCCTAATCTTTCTGTTCAAGCGCCATCTAC | 0.315
7 | GATGATTGTTCTCCCAGCTGATGAATTTGATTAATCGAGTAAACAAATTTTCCTAATCTTTCTGTTCAAGCGCCATCTAC | 0.828
8 | GATGATTGTTCTCCCAGCTGATGAATTTGAGAAATCGAGTAAACAAATTTTCCTAATCTTTCTGTTCAAGCGCCATCTAC | 0.306
9 | GATGATTGTTCTCCCAGCTGATGAATTGTGAGTATCGAGTAAACAAATTTTCCTAATCTTTCTGTTCAAGCGCCATCTAC | 2.08
10 | GATGATTGTTCTCCCAGCTGATGAATTTCCCAGGTCGAGTAAACAAATTTTCCTAATCTTTCTGTTCAAGCGCCATCTAC | 0.172
11 | GATGATTGTTCTCCCAGCTGATGAATTAAAACAGTCGAGTAAACAAATTTTCCTAATCTTTCTGTTCAAGCGCCATCTAC | 0.563
12 | GATGATTGTTCTCCCAGCTGATGAATTAGAGTGATCGAGTAAACAAATTTTCCTAATCTTTCTGTTCAAGCGCCATCTAC | 0.455
13 | GATGATTGTTCTCCCAGCTGATGAATTAAGACTGTCGAGTAAACAAATTTTCCTAATCTTTCTGTTCAAGCGCCATCTAC | 0.614
14 | GATGATTGTTCTCCCAGCTGATGAATTACTGTCTTCGAGTAAACAAATTTTCCTAATCTTTCTGTTCAAGCGCCATCTAC | 0.508
15 | GATGATTGTTCTCCCAGCTGATGAATTCCTGGACTCGAGTAAACAAATTTTCCTAATCTTTCTGTTCAAGCGCCATCTAC | 0.198
16 | GATGATTGTTCTCCCAGCTGATGAATTCTATATCTCGAGTAAACAAATTTTCCTAATCTTTCTGTTCAAGCGCCATCTAC | 0.709

Row | Sequence | binding signal (RPM ratio (pull-down/input))
17 | GATGATTGTTCTCCCAGCTGATGAATTAGGAACATCGAGTAAACAAATTTTCCTAATCTTTCTGTTCAAGCGCCATCTAC | 0.452
18 | GATGATTGTTCTCCCAGCTGATGAATTATTTGAGTCGAGTAAACAAATTTTCCTAATCTTTCTGTTCAAGCGCCATCTAC | 0.442
19 | GATGATTGTTCTCCCAGCTGATGAATTCCACCGCTCGAGTAAACAAATTTTCCTAATCTTTCTGTTCAAGCGCCATCTAC | 0.254
20 | GATGATTGTTCTCCCAGCTGATGAATTTACATTGTCGAGTAAACAAATTTTCCTAATCTTTCTGTTCAAGCGCCATCTAC | 0.765
21 | GATGATTGTTCTCCCAGCTGATGAATTTACGATGTCGAGTAAACAAATTTTCCTAATCTTTCTGTTCAAGCGCCATCTAC | 0.7
22 | GATGATTGTTCTCCCAGCTGATGAATTGGTCATATCGAGTAAACAAATTTTCCTAATCTTTCTGTTCAAGCGCCATCTAC | 0.575
23 | GATGATTGTTCTCCCAGCTGATGAATTGCGGACTTCGAGTAAACAAATTTTCCTAATCTTTCTGTTCAAGCGCCATCTAC | 0.827
24 | GATGATTGTTCTCCCAGCTGATGAATTGACTTAATCGAGTAAACAAATTTTCCTAATCTTTCTGTTCAAGCGCCATCTAC | 0.244
25 | GATGATTGTTCTCCCAGCTGATGAATTTCGTGAATCGAGTAAACAAATTTTCCTAATCTTTCTGTTCAAGCGCCATCTAC | 0.281
26 | GATGATTGTTCTCCCAGCTGATGAATTCGCAGTATCGAGTAAACAAATTTTCCTAATCTTTCTGTTCAAGCGCCATCTAC | 0.739
27 | GATGATTGTTCTCCCAGCTGATGAATTTGTACACTCGAGTAAACAAATTTTCCTAATCTTTCTGTTCAAGCGCCATCTAC | 2.75
28 | GATGATTGTTCTCCCAGCTGATGAATTGGATCTCTCGAGTAAACAAATTTTCCTAATCTTTCTGTTCAAGCGCCATCTAC | 0.289
29 | GATGATTGTTCTCCCAGCTGATGAATTGGGTGTGTCGAGTAAACAAATTTTCCTAATCTTTCTGTTCAAGCGCCATCTAC | 1.27
30 | GATGATTGTTCTCCCAGCTGATGAATTTGGCTTATCGAGTAAACAAATTTTCCTAATCTTTCTGTTCAAGCGCCATCTAC | 1.72
31 | GATGATTGTTCTCCCAGCTGATGAATTTAGTATCTCGAGTAAACAAATTTTCCTAATCTTTCTGTTCAAGCGCCATCTAC | 3.87
32 | GATGATTGTTCTCCCAGCTGATGAATTAGAGCGCTCGAGTAAACAAATTTTCCTAATCTTTCTGTTCAAGCGCCATCTAC | 0.296

Source: article PMC12820563
